Reference: PubChem BioAssay AID2675 (National Center for Advancing Translational Sciences (NCATS), 2010)
Screen size: about 280,000 compounds; about 100 (0.036%) were called active. Inconclusive means that the source gave no clear call. Such entries were picked first, then a sample of the others. Calls come from the whole dose curve; as a rule, active = well fitted inhibition curve with a large enough effect in the signal ratio, with a control signal flat (not every such curve was filed as active); inconclusive = small, poorly fitted or top-dose-only effect, or effect the other way, or a change in a side signal; inactive = no such curve, though single readings can be large or run the other way; the % refers to the signal ratio. Where the call is inconclusive, the potency comes from a doubtful curve fit. A note “side channel” means that the fit belongs to a control or component signal, not to the main read-out.

These molecules were tested against Muscleblind-like protein 1 (Homo sapiens) (UniProt Q9NR56) (assay: qHTS Assay for Inhibitors of MBNL1-poly(CUG) RNA binding). Details: TR-FRET MBNL1-His/biotin-(CUG)12 binding, 665/545 ratio; series mostly up to 57.5 µM.
Outline: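 Ratiometric TR-FRET (665 over 545 nm, excitation 340 nm) tracks disruption of MBNL1-His/biotin-(CUG)12 complex after 60 min at room temperature, with compounds at 92 nM to 58 uM final.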
Potency is the fitted concentration of half-maximal effect; tags give direction and shape of the fitted curve or compound fluorescence and quenching.

Chain of UniProt Q9NR56 (Q9NR56 whole entry, looked up): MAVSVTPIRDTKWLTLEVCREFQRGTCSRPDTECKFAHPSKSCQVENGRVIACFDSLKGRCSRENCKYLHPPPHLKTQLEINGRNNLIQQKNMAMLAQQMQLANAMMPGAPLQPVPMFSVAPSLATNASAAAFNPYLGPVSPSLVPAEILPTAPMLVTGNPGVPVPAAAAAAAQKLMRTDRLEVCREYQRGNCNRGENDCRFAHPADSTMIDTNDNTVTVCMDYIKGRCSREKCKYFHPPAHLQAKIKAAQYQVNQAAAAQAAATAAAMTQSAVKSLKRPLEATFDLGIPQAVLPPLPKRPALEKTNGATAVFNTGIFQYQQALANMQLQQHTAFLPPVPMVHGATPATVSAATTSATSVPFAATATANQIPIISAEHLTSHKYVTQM

Row | Structure (SMILES) | Potency
1 | O=C(O)CCn1cc(C=C2C(=O)NC(=S)NC2=O)c(-c2ccccc2)n1 | inactive
2 | O=C1NC(=S)N(c2ccccc2)C(=O)/C1=C/c1ccco1 | inconclusive: 31.6 µM [quencher, side channel, single point]
3 | COC(=O)C1C=C2c3cccc4[nH]cc(c34)CC2N(C)C1 (stereo not given) | inconclusive: 15.8 µM [quencher, side channel, partial curve]
4 | COc1ccc2c3c([nH]c2c1)C(C)=NCC3 | inconclusive: 28.2 µM [quencher, partial curve]
5 | CC1CC(OP(O)(=S)c2ccc(N(C)C)cc2NC(=O)c2cccs2)CC(C)(C)C1 (stereo not given) | inconclusive: 126 µM [inhibitor, single point]
6 | O=C(O)CCn1cc(C=C2C(=O)NC(=S)NC2=O)c(-c2cc3ccccc3oc2=O)n1 | inactive
7 | Cc1ccc2cc3cc(C(=O)N4CCC5(CC4)OCCO5)oc3nc2c1 | inconclusive: 3.16 µM [quencher, side channel, full curve]
8 | COc1ccc(/C=C/C2=CCN(C)CC2)cc1 | inconclusive: 25.1 µM [quencher, side channel, single point]
9 | CCOc1ccc(N(CC)S(=O)(=O)c2ccc3c(c2)oc(=O)n3C)cc1 | inconclusive: 7.08 µM [quencher, side channel, single point]
10 | C=CCN1C(=O)NC(=O)/C(=C/c2cccn2C)C1=O | inconclusive: 25.1 µM [quencher, side channel, single point]
11 | Cc1ccc(-c2nc3ccccc3c(=O)n2-c2ccc(O)cc2)cc1 | inactive
12 | CCCCCC(=O)N[C@@H](c1ccccc1)[C@@H](O)C(=O)O[C@H]1C[C@@]2(O)[C@@H](OC(=O)c3ccccc3)C3[C@](C)(C(=O)[C@H](O)C(=C1C)C2(C)C)[C@@H](OC1OCC(O)C(O)C1O)C[C@H]1OC[C@@]31OC(C)=O (stereo not given in full) | inactive
13 | CC(C)(C)C(=O)OCC12CCC(O1)C1(C)C(=O)OCC21 (stereo not given) | inconclusive: 126 µM [inhibitor, partial curve]
14 | CCN1CCN(Cc2cc3c(cc2[N+](=O)[O-])OCO3)CC1 | inconclusive: 17.8 µM [quencher, side channel, partial curve]
15 | O=C(c1ccc2c3c(cccc13)CC2)C1CCCN(CC2CC2)C1 (stereo not given) | inconclusive: 22.4 µM [quencher, single point]
16 | Cc1c(N=Nc2c(O)n(Cc3ccccc3)c(=O)[nH]c2=O)c(=O)n(-c2ccccc2)n1C | inconclusive: 0.282 µM [quencher, side channel, full curve, poor fit]
17 | Cc1ccc(-c2n[nH]c(=S)n2-c2ccccc2)cc1 | inactive
18 | COc1cccc(N2C(=O)NC(=O)/C(=C/c3ccc([N+](=O)[O-])s3)C2=O)c1 | inconclusive: 25.1 µM [quencher, side channel, partial curve]
19 | CCN(CC)c1ccc(N=Cc2c(O)n(-c3cc(OC)ccc3OC)c(=O)[nH]c2=O)cc1 | inconclusive: 28.2 µM [quencher, side channel, single point]
20 | CC(C)NC(C)C(=O)c1ccc2ccccc2c1 (stereo not given) | inactive

Row | Structure (SMILES) | Potency
21 | Cc1[nH]c2ccccc2c1C(=O)CN1CC=C(c2ccccc2)CC1 | inactive
22 | COc1ccc(CCN(C)Cc2ccc(F)cc2F)cc1OC | inactive
23 | Cc1ccccc1N1C(=O)NC(=O)/C(=C\c2cc(C)n(C)c2C)C1=O | inconclusive: 28.2 µM [quencher, side channel, single point]
24 | COC(=O)c1ccc(C(C(=O)NC2CCCCC2)N(CCN2CCOCC2)C(=O)Cc2cccs2)cc1 (stereo not given) | inactive
25 | CCOc1ccc(-n2c(O)c(/C=C3\C=Nc4ccccc43)c(=O)[nH]c2=O)cc1 | inconclusive: 31.6 µM [quencher, side channel, single point]
26 | CN1C(=O)NC(=O)/C(=C/c2ccc([N+](=O)[O-])o2)C1=O | inconclusive: 25.1 µM [quencher, partial curve]
27 | CCOP(=O)(OCC)C(CC)N1CCOCC1 (stereo not given) | inactive
28 | Clc1ccc(-c2nc3ccc(Cl)cn3c2CN2CCOCC2)cc1 | inconclusive: 0.708 µM [quencher, side channel, single point]
29 | CCN(CC)c1ccc(N=Cc2c(O)n(-c3ccccc3)c(=O)[nH]c2=O)cc1 | inconclusive: 15.8 µM [quencher, side channel, partial curve]
30 | N/C(=N\N=C\c1ccc(O)cc1O)N[N+](=O)[O-] | inconclusive: 22.4 µM [quencher, side channel, single point]
31 | CCN(CC)C(=O)c1ccc(NC(=O)COc2ccc([N+](=O)[O-])cc2Cl)cc1 | inconclusive: 25.1 µM [quencher, side channel, partial curve]
32 | N[C@@H](Cc1cc(Br)c(O)c(Br)c1)C(=O)O | inconclusive: 1.26 µM [inhibitor, full curve, poor fit]
33 | O=C1NC(=O)C(=Cc2ccc3ccccc3c2)C(=O)N1 | inactive
34 | COC(=O)[C@@H]1C[C@H]1[C@@H](NP(=O)(c1ccccc1)c1ccccc1)c1ccccc1 | inactive
35 | COc1cc(/C=N/NC(=O)CN2CCCCC2)ccc1OCc1ccccc1 | inconclusive: 17.8 µM [quencher, side channel, single point]
36 | COc1ccc(/C=C2/C(=O)NC(=O)N(C3CCCCC3)C2=O)cc1CSc1ccccn1 | inactive
37 | O=[N+]([O-])c1cc(-n2cnnn2)c(O)c([N+](=O)[O-])c1 | inconclusive: 28.2 µM [quencher, side channel, partial curve]
38 | O=[N+]([O-])c1ccc2nc(CCCc3nc4ccc([N+](=O)[O-])cc4[nH]3)[nH]c2c1 | inconclusive: 14.1 µM [quencher, side channel, partial curve]
39 | CC[C@@]1(O)C(=O)OCc2c1cc1n(c2=O)Cc2cc3c(N)cccc3nc2-1 | inconclusive: 8.91 µM [quencher, side channel, partial curve]
40 | O=C(/C=C/c1ccc(Br)cc1)NC(=S)N1C[C@H]2C[C@H](C1)c1cccc(=O)n1C2 | inconclusive: 28.2 µM [quencher, side channel, single point]
